Experimental data published in the BET-seq Pho4 binding data (Le et al. 2018).
The other results are listed elsewhere or left out. Values were computed here from the reads of four pooled replicates and scatter widely.

Target: T1, Pho4 (S. cerevisiae) (UniProt P07270)
T1 sequence: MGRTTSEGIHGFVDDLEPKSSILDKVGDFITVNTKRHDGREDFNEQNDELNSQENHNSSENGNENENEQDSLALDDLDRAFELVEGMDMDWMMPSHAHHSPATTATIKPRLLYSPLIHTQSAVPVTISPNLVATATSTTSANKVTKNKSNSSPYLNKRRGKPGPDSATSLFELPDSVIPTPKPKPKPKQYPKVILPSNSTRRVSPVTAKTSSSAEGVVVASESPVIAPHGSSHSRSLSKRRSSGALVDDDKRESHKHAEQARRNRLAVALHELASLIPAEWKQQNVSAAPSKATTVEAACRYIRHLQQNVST
Experiment: relative binding free energy (BET-seq); higher = weaker binding
Settings: reference: library average

Which “relative binding free energy” value does the source give for ATACGCACGTGGGGAT here?
The value was -0.31 kcal/mol.

GTGCGCACGTGATGGT was tested. Which “relative binding free energy” value did it give?
Its value is 0.11 kcal/mol.

ATAGGCACGTGCTGGA was tested. Which “relative binding free energy” value did it give?
Its value is -0.14 kcal/mol.

For CGGTACACGTGGGGAT, which “relative binding free energy” value is on record?
Its value is -0.09 kcal/mol.

For TTAGACACGTGTAGGA, which “relative binding free energy” value is on record?
Its value is 0.01 kcal/mol.

Which “relative binding free energy” value does the source give for TTTAACACGTGTTGGC here?
Its value is 0.1 kcal/mol.

How did the “relative binding free energy” value turn out when GATAACACGTGGGAGG was run?
Its value is -0.08 kcal/mol.

How did the “relative binding free energy” value turn out when TTAGACACGTGGGAAT was run?
Its value is 0.15 kcal/mol.

ATGGTCACGTGCGTTT was tested. Which “relative binding free energy” value did it give?
Its value is 0.07 kcal/mol.

GGGTGCACGTGGGAGG was tested. Which “relative binding free energy” value did it give?
The value was -0.07 kcal/mol.

Which “relative binding free energy” value does the source give for GCTGGCACGTGAGGCG here?
Its value is 0.21 kcal/mol.

TCTTACACGTGTGGAG was tested. Which “relative binding free energy” value did it give?
Its value is 0.29 kcal/mol.

For CAGGGCACGTGGAGAT, which “relative binding free energy” value is on record?
The value was -0.07 kcal/mol.

TGGGGCACGTGATTGG was tested. Which “relative binding free energy” value did it give?
Its value is 0.02 kcal/mol.

With CAGTGCACGTGCGGTT as the sequence, how does the “relative binding free energy” value read?
Its value is -0.08 kcal/mol.

With GGGGCCACGTGTTCGG as the sequence, how does the “relative binding free energy” value read?
The value was 0.01 kcal/mol.

For CACGTCACGTGGATGG, which “relative binding free energy” value is on record?
The value was 0.21 kcal/mol.

CTTTGCACGTGAATGT was tested. Which “relative binding free energy” value did it give?
Its value is 0.24 kcal/mol.

TTTGGCACGTGTTGAT was tested. Which “relative binding free energy” value did it give?
The value was -0.04 kcal/mol.

With CTTAGCACGTGGGAGC as the sequence, how does the “relative binding free energy” value read?
Its value is -0.05 kcal/mol.

Which “relative binding free energy” value does the source give for TTGGGCACGTGAGCTT here?
The value was 0.16 kcal/mol.

With TAGTTCACGTGTATGC as the sequence, how does the “relative binding free energy” value read?
The value was 0.32 kcal/mol.

ATTCACACGTGGTTTG was tested. Which “relative binding free energy” value did it give?
The value was 0.08 kcal/mol.

With GTTAACACGTGGTGTT as the sequence, how does the “relative binding free energy” value read?
Its value is -0.01 kcal/mol.

TGGCTCACGTGGGCAG was tested. Which “relative binding free energy” value did it give?
Its value is -0.03 kcal/mol.

With TGGGTCACGTGCGCGT as the sequence, how does the “relative binding free energy” value read?
Its value is 0.04 kcal/mol.

Which “relative binding free energy” value does the source give for AACGTCACGTGGAGTG here?
Its value is 0 kcal/mol.

With TTTTACACGTGAAAGG as the sequence, how does the “relative binding free energy” value read?
Its value is 0.4 kcal/mol.

For TGCACCACGTGAGTGG, which “relative binding free energy” value is on record?
The value was 0.23 kcal/mol.

For AGGTTCACGTGTATCA, which “relative binding free energy” value is on record?
Its value is 0.33 kcal/mol.

For GCGGTCACGTGGTTAG, which “relative binding free energy” value is on record?
The value was 0.15 kcal/mol.

AGTTGCACGTGTCATT was tested. Which “relative binding free energy” value did it give?
The value was -0.11 kcal/mol.

For TCGGGCACGTGGATTT, which “relative binding free energy” value is on record?
Its value is -0.06 kcal/mol.

Which “relative binding free energy” value does the source give for GCCGTCACGTGGGGGG here?
The value was -0.04 kcal/mol.

For ATCTTCACGTGATGGT, which “relative binding free energy” value is on record?
Its value is 0.12 kcal/mol.

GTGTACACGTGGGTAG was tested. Which “relative binding free energy” value did it give?
Its value is -0.01 kcal/mol.

With CTTACCACGTGAGTTG as the sequence, how does the “relative binding free energy” value read?
The value was 0.42 kcal/mol.

How did the “relative binding free energy” value turn out when GTGCTCACGTGTAGTG was run?
The value was 0.25 kcal/mol.

Which “relative binding free energy” value does the source give for GGGACCACGTGGATTG here?
Its value is 0.07 kcal/mol.

For CGAGGCACGTGTATGT, which “relative binding free energy” value is on record?
Its value is -0.11 kcal/mol.

TGAGACACGTGGCGGA was tested. Which “relative binding free energy” value did it give?
The value was -0.06 kcal/mol.

For TTGGTCACGTGGTGCA, which “relative binding free energy” value is on record?
The value was 0.05 kcal/mol.

Which “relative binding free energy” value does the source give for GTAGTCACGTGTTCAG here?
The value was 0.18 kcal/mol.

How did the “relative binding free energy” value turn out when TATGACACGTGGTCGA was run?
Its value is 0.02 kcal/mol.

Which “relative binding free energy” value does the source give for AAACGCACGTGGGGTA here?
Its value is -0.26 kcal/mol.

Which “relative binding free energy” value does the source give for CATATCACGTGTGGTG here?
Its value is 0.22 kcal/mol.

Which “relative binding free energy” value does the source give for TAGTTCACGTGGGATA here?
The value was 0.12 kcal/mol.

How did the “relative binding free energy” value turn out when TTGTTCACGTGGATCT was run?
Its value is 0.26 kcal/mol.

For TCTGTCACGTGTTCGG, which “relative binding free energy” value is on record?
Its value is -0.01 kcal/mol.

How did the “relative binding free energy” value turn out when CGGGTCACGTGCAGGA was run?
The value was 0.04 kcal/mol.

How did the “relative binding free energy” value turn out when TGCGCCACGTGTGCGG was run?
Its value is -0.18 kcal/mol.

How did the “relative binding free energy” value turn out when AGTAGCACGTGGAGGT was run?
Its value is -0.14 kcal/mol.

How did the “relative binding free energy” value turn out when GGGTGCACGTGATATC was run?
Its value is 0.32 kcal/mol.

How did the “relative binding free energy” value turn out when ATTTTCACGTGCCGGG was run?
Its value is 0.21 kcal/mol.

With TAGATCACGTGTCGTT as the sequence, how does the “relative binding free energy” value read?
Its value is 0.05 kcal/mol.

For AGATTCACGTGGATAT, which “relative binding free energy” value is on record?
Its value is 0.28 kcal/mol.

With GTATTCACGTGGATGG as the sequence, how does the “relative binding free energy” value read?
The value was 0.14 kcal/mol.

Which “relative binding free energy” value does the source give for GTACACACGTGTTTTG here?
Its value is 0.06 kcal/mol.

How did the “relative binding free energy” value turn out when TCTTGCACGTGTGATG was run?
The value was 0.19 kcal/mol.

Which “relative binding free energy” value does the source give for TACGGCACGTGGTTAG here?
Its value is -0.17 kcal/mol.

TTGCACACGTGGGTGA was tested. Which “relative binding free energy” value did it give?
The value was -0.1 kcal/mol.

Which “relative binding free energy” value does the source give for TAGAGCACGTGGCGGG here?
The value was -0.26 kcal/mol.

With CTGTTCACGTGAAAAG as the sequence, how does the “relative binding free energy” value read?
Its value is 0.65 kcal/mol.

For GGTGCCACGTGGCGGC, which “relative binding free energy” value is on record?
The value was -0.15 kcal/mol.

How did the “relative binding free energy” value turn out when TATGGCACGTGTGATG was run?
Its value is 0.04 kcal/mol.

For GTGCGCACGTGTATGG, which “relative binding free energy” value is on record?
The value was -0.1 kcal/mol.

Which “relative binding free energy” value does the source give for TGCGGCACGTGAGGGG here?
The value was 0.19 kcal/mol.

Which “relative binding free energy” value does the source give for TATGTCACGTGGGGAT here?
Its value is -0.01 kcal/mol.

For GAGGTCACGTGTCGGG, which “relative binding free energy” value is on record?
The value was 0.09 kcal/mol.

For GAGGGCACGTGAGACG, which “relative binding free energy” value is on record?
The value was 0.12 kcal/mol.

With TATCGCACGTGTGGTA as the sequence, how does the “relative binding free energy” value read?
The value was -0.04 kcal/mol.

How did the “relative binding free energy” value turn out when TTTTACACGTGCGATT was run?
The value was 0.21 kcal/mol.

With GTTGTCACGTGACGCT as the sequence, how does the “relative binding free energy” value read?
The value was 0.31 kcal/mol.

For TTTTACACGTGCGATG, which “relative binding free energy” value is on record?
Its value is -0.03 kcal/mol.

With TTCAACACGTGGGCGT as the sequence, how does the “relative binding free energy” value read?
The value was 0 kcal/mol.

How did the “relative binding free energy” value turn out when GAGGGCACGTGGCGCT was run?
Its value is -0.09 kcal/mol.

Which “relative binding free energy” value does the source give for TGTAACACGTGTCGGA here?
The value was 0.08 kcal/mol.

How did the “relative binding free energy” value turn out when CGAGTCACGTGTCGTT was run?
Its value is 0.13 kcal/mol.

For GGTATCACGTGTCGTT, which “relative binding free energy” value is on record?
Its value is 0.19 kcal/mol.

With CCGTTCACGTGGTTGG as the sequence, how does the “relative binding free energy” value read?
Its value is 0.19 kcal/mol.

AGGGTCACGTGTCGGA was tested. Which “relative binding free energy” value did it give?
Its value is 0.18 kcal/mol.

AGGGTCACGTGGGCGG was tested. Which “relative binding free energy” value did it give?
Its value is -0.02 kcal/mol.

With TGATGCACGTGAGTGG as the sequence, how does the “relative binding free energy” value read?
Its value is 0.27 kcal/mol.

With GGTGTCACGTGGTAGG as the sequence, how does the “relative binding free energy” value read?
The value was 0.04 kcal/mol.

For TATGACACGTGGAGTG, which “relative binding free energy” value is on record?
The value was -0.09 kcal/mol.

How did the “relative binding free energy” value turn out when TAATGCACGTGTTGAA was run?
Its value is -0.07 kcal/mol.

TTTGGCACGTGTACGC was tested. Which “relative binding free energy” value did it give?
Its value is -0.08 kcal/mol.

How did the “relative binding free energy” value turn out when AGGTGCACGTGGACGA was run?
The value was -0.04 kcal/mol.

How did the “relative binding free energy” value turn out when CGCGGCACGTGGAGGC was run?
Its value is 0.05 kcal/mol.

For TTCAACACGTGGCGGG, which “relative binding free energy” value is on record?
Its value is 0.09 kcal/mol.

With AGTGCCACGTGGCGTT as the sequence, how does the “relative binding free energy” value read?
The value was -0.32 kcal/mol.

Which “relative binding free energy” value does the source give for GTTATCACGTGGATGT here?
Its value is 0.3 kcal/mol.

Which “relative binding free energy” value does the source give for ATTTTCACGTGAATCA here?
Its value is 0.41 kcal/mol.

With GGGTGCACGTGATGAA as the sequence, how does the “relative binding free energy” value read?
Its value is 0.17 kcal/mol.

TTAATCACGTGGTCAA was tested. Which “relative binding free energy” value did it give?
Its value is 0.07 kcal/mol.

Which “relative binding free energy” value does the source give for TTCATCACGTGGTGTC here?
The value was 0.1 kcal/mol.

For TGATTCACGTGTTCGA, which “relative binding free energy” value is on record?
The value was 0.25 kcal/mol.

Which “relative binding free energy” value does the source give for CTGATCACGTGGCGTG here?
The value was 0.11 kcal/mol.

For TAATACACGTGAAATG, which “relative binding free energy” value is on record?
Its value is 0.42 kcal/mol.

Which “relative binding free energy” value does the source give for TAGGTCACGTGAGGGT here?
The value was 0.36 kcal/mol.

For TGAGTCACGTGTGAGG, which “relative binding free energy” value is on record?
The value was 0.1 kcal/mol.

GTTAACACGTGGTCTT was tested. Which “relative binding free energy” value did it give?
Its value is -0.12 kcal/mol.

Which “relative binding free energy” value does the source give for ATTTTCACGTGAGAGT here?
Its value is 0.33 kcal/mol.

For TAGGGCACGTGTAGAG, which “relative binding free energy” value is on record?
Its value is 0.02 kcal/mol.

For TTTGCCACGTGTTATA, which “relative binding free energy” value is on record?
Its value is -0.14 kcal/mol.

With GGGGCCACGTGATTTT as the sequence, how does the “relative binding free energy” value read?
Its value is 0.19 kcal/mol.

How did the “relative binding free energy” value turn out when AGAGGCACGTGGTGTA was run?
Its value is -0.12 kcal/mol.

For CATGGCACGTGTCGGT, which “relative binding free energy” value is on record?
The value was -0.03 kcal/mol.

Which “relative binding free energy” value does the source give for AATTGCACGTGGCAAG here?
Its value is -0.05 kcal/mol.

With TTATACACGTGGGTAA as the sequence, how does the “relative binding free energy” value read?
The value was -0.1 kcal/mol.

For GCTTGCACGTGTGATT, which “relative binding free energy” value is on record?
The value was 0.1 kcal/mol.

GTGTGCACGTGTTATG was tested. Which “relative binding free energy” value did it give?
The value was 0.14 kcal/mol.

How did the “relative binding free energy” value turn out when ATGTGCACGTGGGCAG was run?
The value was -0.24 kcal/mol.

Which “relative binding free energy” value does the source give for AGGTTCACGTGATCCG here?
The value was 0.38 kcal/mol.

How did the “relative binding free energy” value turn out when CTTGGCACGTGCGTAG was run?
The value was -0.26 kcal/mol.
